In PubChem BioAssay AID1466 (National Center for Advancing Translational Sciences (NCATS), 2008):
About 10 (0.005%) of roughly 200,000 compounds were called active. The inconclusive results got no clear call from the source; some entries with a clear call stand among them for comparison. Calls follow the shape of the dose curve; as a rule, active = well fitted inhibition curve with a large enough effect; inconclusive = small, poorly fitted or top-dose-only effect, or effect the other way, or another doubt; inactive = no such curve, though single readings can be large or run the other way. No potency is given beside an inconclusive call; the fits are too rough.

biological target: Lysosomal alpha-glucosidase (Homo sapiens) (UniProt P10253); experiment: qHTS Assay for Inhibitors of Human alpha-Glucosidase as a Potential Chaperone Treatment of Pompe Disease; details: purified human GAA, 4-MU-alpha-glucoside fluorescence; activity change, negative = inhibition: at 76.9 µM (top of the series) unless noted;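 as to activity change, negative = inhibition: plate controls were uninhibited enzyme wells for no effect and no-enzyme background for full effect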
In short: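 Activity normalized between no-enzyme (basal) and enzyme-only wells. Conditions: 4 nM human enzyme, 400 uM fluorogenic substrate, citrate/phosphate pH 5.0 with Tween-20, 20 min room temperature, compounds up to 77 uM.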
Potency is read from the fitted curve at half-maximal effect; tags tell the direction and shape of the fitted curve.

| Compound | Potency | activity change, negative = inhibition |
| --- | --- | --- |
| CC(C)CC(=O)N1CCN(S(=O)(=O)c2ccc(F)cc2)CC1 | inactive | – |
| CCCCCCC(=O)Nc1c2c(nc3ccccc13)N(C)CC2 | inconclusive [activator, partial curve] | – |
| CNC(=O)c1cc(Nc2nnc(C)c3ccccc23)ccc1OC | inconclusive [inhibitor, partial curve] | – |
| CC(=O)NCCC(=O)Nc1nc(C)c(Cc2ccc3c(c2)OCO3)s1 | inconclusive [inhibitor, single point] | – |
| COc1ccc(CC(=O)NCc2nnc(SCC(=O)Nc3cccc(F)c3)n2C)cc1 | – | inconclusive: 5.66% [activator] |
| CS(=O)(=O)N(CC(=O)Nc1cc(Cl)ccc1Cl)c1ccccc1 | inconclusive [inhibitor, single point] | – |
| COc1ccc(N2C(=O)NC3CC2(C)Oc2ccccc23)cc1OC (stereo unspecified) | inconclusive [inhibitor, single point] | – |
| CCN(CC)c1cccc(OC2=NS(=O)(=O)c3ccccc32)c1 | inactive | – |
| O=C(COc1cccc2cccnc12)NCc1cccs1 | inconclusive [inhibitor, single point] | – |
| Cc1c(NC(=S)N/N=C/c2ccc(N(C)C)cc2)c(=O)n(-c2ccccc2)n1C | inconclusive [activator, single point] | – |
| COc1ccc(Sc2ccc(NC(=O)c3ccccc3Cl)cc2C#N)cc1 | inconclusive [inhibitor, full curve, poor fit] | – |
| CCOC(=O)C1CCN(S(=O)(=O)c2ccc(-n3cnnn3)c(C)c2)CC1 | inconclusive [inhibitor, full curve, poor fit] | – |
| CCN(CC)S(=O)(=O)c1cccc(C(=O)Nc2nnc(C)s2)c1 | inconclusive [activator, full curve, poor fit] | – |
| COC(=O)C1CC(O)CN1C(=O)NC1CCCCC1 (stereo unspecified) | – | inconclusive: 19.3% [activator] |
| Nc1nc(N2CCCCC2)nc2ccccc12 | inconclusive [activator, single point] | – |
| COc1ccc2[nH]c(=O)c(C(=O)O)cc2c1 | inconclusive [activator, single point] | – |
| Oc1ccccc1N=Cc1c(O)ccc2ccccc12 | inactive | – |
| CCOC(=O)CC1=C(C(=O)OCC)C(c2ccncc2)C(C#N)=C(N)O1 (stereo unspecified) | inconclusive [activator, single point] | – |
| Cc1ccc2c(c1)C(=O)C(=O)N2CCCOc1ccccc1C | – | inconclusive: 8.94% [activator] |
| COc1ccc(C(=O)NNC(=O)CSc2nnc(C)n2C)cc1 | – | inconclusive: 14.6% [activator] |
| N#Cc1c(C(F)(F)F)cc(-c2ccc(Cl)cc2)[nH]c1=O | inconclusive [activator, partial curve] | – |
| CCOC(=O)CNc1c(-c2ccc(O)cc2)nc2ccccn12 | inactive | – |

| Compound | Potency | activity change, negative = inhibition |
| --- | --- | --- |
| CCOC(=O)CN(C(=O)CSc1nnc(C)n1-c1ccccc1)c1ccccc1 | inconclusive [inhibitor, single point] | – |
| CC(=O)N1N=C(c2cccs2)CC1c1ccco1 (stereo unspecified) | – | inconclusive: 20% [activator] |
| O=C(OCc1nnc(-c2ccccc2)o1)c1ccc2c(c1)OCO2 | inconclusive [inhibitor, single point] | – |
| COC(=O)CN1C(=O)N/C(=C/c2ccc(C)o2)C1=O | – | inconclusive: -15.1% [inhibitor] |
| C(#Cc1ccccc1)C[N+]1(CC#Cc2ccccc2)CCCCC1 | – | inconclusive: 20% [activator] |
| O=C1/C(=C/c2cccnc2)Oc2cc(OS(=O)(=O)c3ccccc3)ccc21 | – | inconclusive: -15.6% [inhibitor] |
| COc1ccc(-c2[nH]c(-c3ccc(C(=O)O)cc3)nc2-c2ccccc2)cc1 | inconclusive [activator, partial curve] | – |
| O=C(Nc1ccc(N2CCOCC2)c(Cl)c1)c1c(F)c(F)c(F)c(F)c1F | inactive | – |
| COc1ccc(NS(=O)(=O)c2cc(NC(=O)/C=C/c3ccccc3OC)ccc2N2CCCCC2)cc1 | inconclusive [inhibitor, full curve] | – |
| COc1ccc(C2CC(=O)C3=C(C2)Nc2ncnn2C3c2ccccc2)cc1 (stereo unspecified) | inconclusive [activator, single point] | – |
| CC(=O)OCC(=O)Nc1ccc(Cl)cc1Cl | – | inconclusive: -16.4% [inhibitor] |
| COc1ccccc1/C=C/C1C(C(=O)OCC(C)C)=C(C)N=C2SCCC(=O)N21 (stereo unspecified) | inconclusive [inhibitor, single point] | – |
| O=C(CCCOc1ccc(Cl)cc1Cl)Nc1ncccn1 | inconclusive [inhibitor, partial curve, poor fit] | – |
| CCOC(=O)c1c(NC(=O)CSc2nnc(CN3CCOCC3)n2C)sc2c1CCCC2 | inconclusive [inhibitor, full curve, poor fit] | – |
| O=C(Cc1ccccc1)c1nnc(-c2ccccc2)o1 | inconclusive [inhibitor, single point] | – |
| CCc1ccc(Nc2cc(C(=O)NCCCN3CCOCC3)c3ccccc3n2)cc1 | – | inconclusive: -15.4% [inhibitor] |
| Cc1ccccc1C(=O)c1cccn1CC(=O)N1CCCCCC1 | inconclusive [inhibitor, single point] | – |
| Cc1cccc(-c2ncc(CN3CCCC(CO)(Cc4cccc(Cl)c4)C3)cn2)c1 (stereo unspecified) | inconclusive [inhibitor, single point] | – |
| CCOc1cccc(/C=N/NC(=S)Nc2cc(S(=O)(=O)N3CCOCC3)ccc2N2CCOCC2)c1O | inconclusive [inhibitor, single point] | – |
| Cc1ccnc(NS(=O)(=O)c2ccc(NC(=O)c3ccc4c(c3)OCCO4)cc2)n1 | – | inconclusive: 15.8% [activator] |
| Cc1ccc(Oc2nc3ccccc3n3c(C)nnc23)c(C)c1 | inconclusive [inhibitor, partial curve] | – |
| CC(=O)c1cccc(NC(=O)c2cc(C(C)C)on2)c1 | inconclusive [inhibitor, single point] | – |

| Compound | Potency | activity change, negative = inhibition |
| --- | --- | --- |
| COc1cccc(-n2cc(CNCc3cn(C)nc3-c3ccccc3F)cn2)c1 | – | inconclusive: -16.1% [inhibitor] |
| OC(c1cc(-c2ccc(C(F)(F)F)cc2)nc(C(F)(F)F)c1)C1CCCCN1 (stereo unspecified) | inconclusive [inhibitor, full curve] | – |
| C=CCn1c(C(CCC(C)C)CC(C)(C)O)n[nH]c1=S (stereo unspecified) | inconclusive [inhibitor, partial curve] | – |
| Cc1nn(Cc2cccc(C(=O)NC(C)c3ccc(C(C)(C)C)cc3)c2)c(C)c1[N+](=O)[O-] (stereo unspecified) | inconclusive [inhibitor, full curve] | – |
| O=C(N/N=C/c1ccc([N+](=O)[O-])cc1)c1c[nH]c2ccccc12 | inconclusive [inhibitor, partial curve, poor fit] | – |
| O=c1[nH][nH]c(C(F)(F)F)c1C=Nc1ccccc1 | inactive | – |
| CCn1cc(C(=O)NCc2ccco2)c2cc(OC)c(OC)cc2c1=O | inactive | – |
| COc1ccc(N(CC(=O)Nc2cc(C)ccc2OC)S(=O)(=O)c2c(C)noc2C)cc1 | – | inconclusive: -20.2% [inhibitor] |
| Cc1ccccc1CC1(CO)CCCN(Cc2c(C)nn(C)c2Cl)C1 (stereo unspecified) | – | inconclusive: 11.9% [activator] |
| O=C(CN1CCCCC1)NCC1(c2ccccc2)CCCC1 | – | inconclusive: 16.5% [activator] |
| C=CC[n+]1c(-c2ccc(OC)cc2)csc1NNC(=O)Nc1ccccc1 | inactive | – |
| S=C1NCN(Cc2ccco2)CN1c1cccc2ccccc12 | – | inconclusive: -15.9% [inhibitor] |
| Cc1ccc2c(CN3CCN(S(=O)(=O)/C=C/c4ccccc4)CC3)cc(=O)oc2c1 | inconclusive [inhibitor, single point] | – |
| CCCN1CCCc2cc(CN(CCCN3CCOCC3)C(=O)Nc3ccc(OCC)cc3)ccc21 | inconclusive [inhibitor, single point] | – |
| CCCNC(=O)CN(c1cccc(F)c1)S(C)(=O)=O | inconclusive [inhibitor, partial curve] | – |
| O=C(N/N=C/c1ccc(N2CCOCC2)s1)c1ccc(NS(=O)(=O)c2cccs2)cc1 | inconclusive [inhibitor, partial curve] | – |
| COc1ccc(C2=NN(c3nc(-c4ccccc4)c(CC(=O)O)s3)C(c3ccco3)C2)cc1 (stereo unspecified) | inconclusive [inhibitor, single point] | – |
| N#Cc1c(N)n(CCc2ccc(F)cc2)c2nc3ccccc3nc12 | inconclusive [activator, partial curve] | – |
| Cc1cccc(-n2c(SCc3ccc([N+](=O)[O-])cc3)nnc2-c2c[nH]c3ccccc23)c1 | inconclusive [inhibitor, single point] | – |
| O=C(CN(CCc1ccccc1)C(=O)CNS(=O)(=O)c1ccc(F)cc1)NCc1ccco1 | inconclusive [inhibitor, partial curve, poor fit] | – |
| Fc1ccc(N2N=C(c3cccs3)CC2c2ccccc2)cc1 (stereo unspecified) | inconclusive [activator, partial curve] | – |
| O=C1c2ccccc2C(=O)N1CCc1c[nH]c2ccc(O)cc12 | inconclusive [inhibitor, full curve, poor fit] | – |
